# Target: recombinant SARS-CoV-2 Main protease (Mpro) (Severe acute respiratory syndrome coronavirus 2, UniProt P0DTD1)
# Experiment: Cov Mpro Biochemical IC50 Assay
# Settings: 7.5 nM Mpro, fluorogenic peptide substrate 40 μM, 20 min pre-incubation
row,SMILES,IC50 [nM]
1,"COc1cc(-c2cc3[nH]c(=O)n([C@H]4CCCNC(=O)C4)c(=O)c3s2)c(Cl)cc1F [Example 31, (S)-6-(2-chloro-4-fluoro-5-methoxyphenyl)-3-(2-oxoazepan-4-yl)thieno[3,2-d]pyrimidine-2,4(1H,3H)-dione]",79.4
2,"COc1ccc(C#N)c(-c2cc3[nH]c(=O)n(C4CCCNC(=O)C4)c(=O)c3s2)c1 (centres unmarked) [Example 25, 2-(2,4-dioxo-3-(2-oxoazepan-4-yl)-1,2,3,4-tetrahydrothieno[3,2-d]pyrimidin-6-yl)-4-methoxybenzonitrile]",13
3,"COc1cc(-c2cc3c(s2)c(=O)n([C@@H]2CCCNC(=O)C2)c(=O)n3CCC#N)c(Cl)cc1F [Example 48, (R)-3-(6-(2-chloro-4-fluoro-5-methoxyphenyl)-2,4-dioxo-3-(2-oxoazepan-4-yl)-3,4-dihydrothieno[3,2-d]pyrimidin-1(2H)-yl)propanenitrile]",4.02
4,"Cc1cc(-c2cccc(Cl)c2-c2cc3[nH]c(=O)n(C4CCNC(=O)C4)c(=O)c3s2)cnn1 (centres unmarked) [Example 10, 6-(2-chloro-6-(6-methylpyridazin-4-yl)phenyl)-3-(2-oxopiperidin-4-yl)thieno[3,2-d]pyrimidine-2,4(1H,3H)-dione]",43
5,"O=C1C[C@H](n2c(=O)[nH]c3cc(-c4ccccc4Cl)sc3c2=O)CN1 [Example 2, 6-(2-chlorophenyl)-3-[(3S)-5-oxopyrrolidin-3-yl]-1H-thieno[3,2-d]pyrimidine-2,4-dione]",> 50000
6,"COc1cc(-c2cc3c(s2)c(=O)n([C@@H]2CCCNC(=O)C2)c(=O)n3Cc2ncn(C)n2)c(Cl)cc1F [Example 41, (R)-6-(2-chloro-4-fluoro-5-methoxyphenyl)-1-((1-methyl-11H-1,2,4-triazol-3-yl)methyl)-3-(2-oxoazepan-4-yl)thieno[3,2-d]pyrimidine-2,4(1H,3H)-dione]",80.5
7,"COc1cc(-c2cc3[nH]c(=O)n([C@@H]4CCCNC(=O)C4)c(=O)c3s2)c(Cl)cc1F [Example 30, (R)-6-(2-chloro-4-fluoro-5-methoxyphenyl)-3-(2-oxoazepan-4-yl)thieno[3,2-d]pyrimidine-2,4(1H,3H)-dione]",< 3.75
8,"COc1ccc(Cl)c(-c2cc3c(s2)c(=O)n([C@@H]2CCCNC(=O)C2)c(=O)n3CCC#N)c1 [Example 29, (R)-3-(6-(2-chloro-5-methoxyphenyl)-2,4-dioxo-3-(2-oxoazepan-4-yl)-3,4-dihydrothieno[3,2-d]pyrimidin-1(2H)-yl)propanenitrile]",< 3.75
9,"O=C1CC(n2c(=O)[nH]c3cc(-c4ccccc4Cl)sc3c2=O)CCCN1 (centres unmarked) [Example 8, 6-(2-chlorophenyl)-3-(2-oxoazepan-4-yl)thieno[3,2-d]pyrimidine-2,4(1H,3H)-dione]",16.8
10,"O=C1C[C@H](n2c(=O)[nH]c3cc(-c4ccccc4Cl)ccc3c2=O)CCN1 [Example 6, (R)-7-(2-chlorophenyl)-3-(2-oxopiperidin-4-yl)quinazoline-2,4(1H,3H)-dione]",30400
11,"COc1ccc(Cl)c(-c2cc3[nH]c(=O)n([C@@H]4CCCNC(=O)C4)c(=O)c3s2)c1 (single isomer, unassigned) [Example 23]",< 3.75
12,"N#CCCn1c(=O)n([C@@H]2CCCNC(=O)C2)c(=O)c2sc(-c3ccccc3C#N)cc21 [Example 52, (R)-2-(1-(2-cyanoethyl)-2,4-dioxo-3-(2-oxoazepan-4-yl)-1,2,3,4-tetrahydrothieno[3,2-d]pyrimidin-6-yl)benzonitrile]",66.7
13,"COc1cc(-c2cc3c(s2)c(=O)n([C@@H]2CCCNC(=O)C2)c(=O)n3CC2(C#N)CC2)c(Cl)cc1F [Example 36, (R)-1-((6-(2-chloro-4-fluoro-5-methoxyphenyl)-2,4-dioxo-3-(2-oxoazepan-4-yl)-3,4-dihydrothieno[3,2-d]pyrimidin-1(2H)-yl)methyl)cyclopropane-1-carbonitrile]",< 3.75
14,"COc1ccc(Cl)c(-c2ccc3c(=O)n(C4CCCNC(=O)C4)c(=O)[nH]c3c2)c1 (centres unmarked) [Example 27, 7-(2-chloro-5-methoxyphenyl)-3-(2-oxoazepan-4-yl)quinazoline-2,4(1H,3H)-dione]",107

# Source: patent publication US20250276979A1, “SARS-COV2 MAIN PROTEASE INHIBITORS” (Gilead Sciences, Inc., priority 2024, published 2025)
